Some of the results follow.

The target of the assay is T1, MBP-FoxP1dN (Mus musculus, UniProt P58462 326-579).
T1 sequence: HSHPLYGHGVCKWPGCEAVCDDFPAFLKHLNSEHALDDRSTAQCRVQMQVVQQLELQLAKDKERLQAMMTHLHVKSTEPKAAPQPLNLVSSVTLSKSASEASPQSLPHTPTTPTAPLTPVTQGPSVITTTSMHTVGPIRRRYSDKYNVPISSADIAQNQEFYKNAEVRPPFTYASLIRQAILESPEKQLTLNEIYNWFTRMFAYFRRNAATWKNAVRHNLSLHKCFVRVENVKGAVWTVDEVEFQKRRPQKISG
Description: PD-seq (MBP pull-down with sequencing); 20 mM Tris-HCl pH 7.5, 100 mM NaCl, 1.5 mM MgCl2, 0.4 uM protein, 0.1 uM dsDNA library, 30 min, room temperature, amylose pull-down; high values mean tight binding. As to conditions: protein: recombinant; tags: His6-MBP; chain copies: 2; dsDNA, one strand shown. The method, boiled down:
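Amylose resin was used to capture complexes formed during 30 min at room temperature in Tris pH 7.5 buffer with NaCl and MgCl2 between 0.4 µM His6-MBP-tagged mouse FoxP3 or FoxP1 fragment lacking the N-terminus, expressed in E. coli, and 0.1 µM Klenow-filled double-stranded degenerate DNA library. After three washes, the DNA was released with proteinase K, barcoded by PCR and sequenced on Illumina. Binding is pooled-replicate reads-per-million enrichment, pull-down over input.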
Consider “GATGATTGTTCTCCCAGCTGATGAATTTGAGCCTTCGAGTAAACAAATTTTCCTAATCTTTCTGTTCAAGCGCCATCTAC”, for which the binding signal was 0.834 RPM ratio (pull-down/input).
As for “GATGATTGTTCTCCCAGCTGATGAATTATTAGTCTCGAGTAAACAAATTTTCCTAATCTTTCTGTTCAAGCGCCATCTAC”, the figure is 1.19 RPM ratio (pull-down/input); as for “GATGATTGTTCTCCCAGCTGATGAATTACTCACATCGAGTAAACAAATTTTCCTAATCTTTCTGTTCAAGCGCCATCTAC”, 1.28 RPM ratio (pull-down/input).
As for “GATGATTGTTCTCCCAGCTGATGAATTGAGCGTATCGAGTAAACAAATTTTCCTAATCTTTCTGTTCAAGCGCCATCTAC”, the figure is 1.04 RPM ratio (pull-down/input); as for “GATGATTGTTCTCCCAGCTGATGAATTAGTCCAATCGAGTAAACAAATTTTCCTAATCTTTCTGTTCAAGCGCCATCTAC”, 1.07 RPM ratio (pull-down/input); as for “GATGATTGTTCTCCCAGCTGATGAATTGCAAGCTTCGAGTAAACAAATTTTCCTAATCTTTCTGTTCAAGCGCCATCTAC”, 1.05 RPM ratio (pull-down/input).
As for “GATGATTGTTCTCCCAGCTGATGAATTTACGCGATCGAGTAAACAAATTTTCCTAATCTTTCTGTTCAAGCGCCATCTAC”, the figure is 1.15 RPM ratio (pull-down/input).
On to “GATGATTGTTCTCCCAGCTGATGAATTTCATTGATCGAGTAAACAAATTTTCCTAATCTTTCTGTTCAAGCGCCATCTAC”, for which the binding signal was 1.01 RPM ratio (pull-down/input).
As to “GATGATTGTTCTCCCAGCTGATGAATTGGCCTGCTCGAGTAAACAAATTTTCCTAATCTTTCTGTTCAAGCGCCATCTAC”, the binding signal was 0.792 RPM ratio (pull-down/input).
The result for “GATGATTGTTCTCCCAGCTGATGAATTAAGGATGTCGAGTAAACAAATTTTCCTAATCTTTCTGTTCAAGCGCCATCTAC” reads 1.03 RPM ratio (pull-down/input).
For “GATGATTGTTCTCCCAGCTGATGAATTCCTTGGATCGAGTAAACAAATTTTCCTAATCTTTCTGTTCAAGCGCCATCTAC”, the binding signal was 0.821 RPM ratio (pull-down/input).
The result for “GATGATTGTTCTCCCAGCTGATGAATTCTTTAGCTCGAGTAAACAAATTTTCCTAATCTTTCTGTTCAAGCGCCATCTAC” reads 0.805 RPM ratio (pull-down/input); that for “GATGATTGTTCTCCCAGCTGATGAATTCATGAGGTCGAGTAAACAAATTTTCCTAATCTTTCTGTTCAAGCGCCATCTAC”, 0.793 RPM ratio (pull-down/input); that for “GATGATTGTTCTCCCAGCTGATGAATTCTAAAAATCGAGTAAACAAATTTTCCTAATCTTTCTGTTCAAGCGCCATCTAC”, 0.995 RPM ratio (pull-down/input).
With “GATGATTGTTCTCCCAGCTGATGAATTTAAACTGTCGAGTAAACAAATTTTCCTAATCTTTCTGTTCAAGCGCCATCTAC”, the binding signal was 0.848 RPM ratio (pull-down/input).
Turning to “GATGATTGTTCTCCCAGCTGATGAATTAGGCTGTTCGAGTAAACAAATTTTCCTAATCTTTCTGTTCAAGCGCCATCTAC”, the binding signal was 0.939 RPM ratio (pull-down/input).
As to “GATGATTGTTCTCCCAGCTGATGAATTAATTAAATCGAGTAAACAAATTTTCCTAATCTTTCTGTTCAAGCGCCATCTAC”, the binding signal is 1.08 RPM ratio (pull-down/input).
Take “GATGATTGTTCTCCCAGCTGATGAATTTCGCTGTTCGAGTAAACAAATTTTCCTAATCTTTCTGTTCAAGCGCCATCTAC”: the binding signal is 0.917 RPM ratio (pull-down/input).
The result for “GATGATTGTTCTCCCAGCTGATGAATTCAAAGAATCGAGTAAACAAATTTTCCTAATCTTTCTGTTCAAGCGCCATCTAC” reads 0.95 RPM ratio (pull-down/input); that for “GATGATTGTTCTCCCAGCTGATGAATTTTAGTCGTCGAGTAAACAAATTTTCCTAATCTTTCTGTTCAAGCGCCATCTAC”, 0.965 RPM ratio (pull-down/input); that for “GATGATTGTTCTCCCAGCTGATGAATTAGTTAAGTCGAGTAAACAAATTTTCCTAATCTTTCTGTTCAAGCGCCATCTAC”, 0.957 RPM ratio (pull-down/input).
For “GATGATTGTTCTCCCAGCTGATGAATTTAGTCACTCGAGTAAACAAATTTTCCTAATCTTTCTGTTCAAGCGCCATCTAC”, the binding signal was 1.01 RPM ratio (pull-down/input).
“GATGATTGTTCTCCCAGCTGATGAATTTGCTATCTCGAGTAAACAAATTTTCCTAATCTTTCTGTTCAAGCGCCATCTAC”: the binding signal is 1.08 RPM ratio (pull-down/input).
For the sequence “GATGATTGTTCTCCCAGCTGATGAATTAGAAAGGTCGAGTAAACAAATTTTCCTAATCTTTCTGTTCAAGCGCCATCTAC”, the binding signal is 0.826 RPM ratio (pull-down/input).
As for “GATGATTGTTCTCCCAGCTGATGAATTCCCCAAATCGAGTAAACAAATTTTCCTAATCTTTCTGTTCAAGCGCCATCTAC”, the figure is 0.929 RPM ratio (pull-down/input).
As to “GATGATTGTTCTCCCAGCTGATGAATTGGGTAACTCGAGTAAACAAATTTTCCTAATCTTTCTGTTCAAGCGCCATCTAC”, the binding signal was 0.837 RPM ratio (pull-down/input).
As for “GATGATTGTTCTCCCAGCTGATGAATTGAAGTTTTCGAGTAAACAAATTTTCCTAATCTTTCTGTTCAAGCGCCATCTAC”, the figure is 0.977 RPM ratio (pull-down/input); as for “GATGATTGTTCTCCCAGCTGATGAATTAAGGCAGTCGAGTAAACAAATTTTCCTAATCTTTCTGTTCAAGCGCCATCTAC”, 0.906 RPM ratio (pull-down/input).
The result for “GATGATTGTTCTCCCAGCTGATGAATTCAAAAGGTCGAGTAAACAAATTTTCCTAATCTTTCTGTTCAAGCGCCATCTAC” reads 0.742 RPM ratio (pull-down/input); that for “GATGATTGTTCTCCCAGCTGATGAATTGGTGTGTTCGAGTAAACAAATTTTCCTAATCTTTCTGTTCAAGCGCCATCTAC”, 1.34 RPM ratio (pull-down/input).
The result for “GATGATTGTTCTCCCAGCTGATGAATTATCCGCGTCGAGTAAACAAATTTTCCTAATCTTTCTGTTCAAGCGCCATCTAC” reads 0.955 RPM ratio (pull-down/input).

The values above are taken from paper PMC12820563, “FoxP3 forms a head-to-head dimer in vivo and stabilizes its multimerization on adjacent microsatellites”.
